Source: a compilation of properties of binary mixtures (doi:10.1021/acs.jced.2c00096)
The densities may have been worked out from excess volumes.

Experiment: xn = mol fraction of the nth substance listed
Conditions: 100 kPa

CCCC[N+]1(C)CCCC1.O=S(=O)([O-])C(F)(F)F + O
mass density [kg/m3]
Conditions | 288.15 K | 293.15 K | 298.15 K | 303.15 K | 308.15 K | 313.15 K | 318.15 K | 323.15 K | 328.15 K | 333.15 K
x2 = 0.0597 | – | 1254 | – | 1246.7 | – | 1239.5 | 1236 | – | 1228.8 | 1225.3
x2 = 0.1203 | 1256.2 | 1252.5 | 1248.9 | 1245.3 | – | 1238.1 | – | 1230.8 | 1227.2 | 1223.7
x2 = 0.1956 | – | 1250.5 | – | 1243.2 | – | – | – | – | – | 1221.5
x2 = 0.3197 | – | – | 1242.6 | 1238.9 | 1235.2 | 1231.6 | – | 1224.2 | 1220.5 | 1216.9
x2 = 0.3766 | – | 1244 | – | – | – | 1229.1 | 1225.5 | 1221.8 | – | 1214.5
x2 = 0.4836 | – | 1238.6 | 1234.8 | 1230.9 | – | 1223.4 | 1219.6 | 1215.7 | 1212.1 | 1208.4
x2 = 0.5819 | 1235 | 1231.5 | 1227.6 | 1223.7 | 1219.8 | – | 1212.1 | – | 1204.4 | –
x2 = 0.6794 | 1224.7 | 1221.1 | – | 1213.3 | 1209.4 | 1205.3 | 1201.6 | – | 1193.8 | 1189.7
x2 = 0.7673 | – | 1206.4 | – | 1198.6 | 1194.7 | 1190.6 | 1186.7 | 1182.6 | 1178.6 | 1174.6
x2 = 0.8612 | 1179.6 | – | 1172.1 | 1168.4 | 1164.7 | 1160.6 | 1156.8 | 1153 | 1148.9 | 1144.9
x2 = 0.95 | – | 1106.1 | – | – | – | 1093.5 | – | – | – | 1079.8
